# Assay results as given in publication PMC4336329 (PLoS ONE, 2015).
# The campaign covered roughly 310,000 compounds. About 14,000 (4.5%) showed an effect of 50% or more. Effects have a minus sign here. The list shows a part of the results.
# Target: human ether-à-go-go-related gene (hERG) potassium channel (human, UniProt Q12809)
# Assay: primary screen, population patch clamp on CHO cells stably expressing hERG
# 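Also: peak tail current of the secondary pulse compared with the same well before compound.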
# Chain of human ether-à-go-go-related gene (hERG) potassium channel (Q12809 whole entry, looked up): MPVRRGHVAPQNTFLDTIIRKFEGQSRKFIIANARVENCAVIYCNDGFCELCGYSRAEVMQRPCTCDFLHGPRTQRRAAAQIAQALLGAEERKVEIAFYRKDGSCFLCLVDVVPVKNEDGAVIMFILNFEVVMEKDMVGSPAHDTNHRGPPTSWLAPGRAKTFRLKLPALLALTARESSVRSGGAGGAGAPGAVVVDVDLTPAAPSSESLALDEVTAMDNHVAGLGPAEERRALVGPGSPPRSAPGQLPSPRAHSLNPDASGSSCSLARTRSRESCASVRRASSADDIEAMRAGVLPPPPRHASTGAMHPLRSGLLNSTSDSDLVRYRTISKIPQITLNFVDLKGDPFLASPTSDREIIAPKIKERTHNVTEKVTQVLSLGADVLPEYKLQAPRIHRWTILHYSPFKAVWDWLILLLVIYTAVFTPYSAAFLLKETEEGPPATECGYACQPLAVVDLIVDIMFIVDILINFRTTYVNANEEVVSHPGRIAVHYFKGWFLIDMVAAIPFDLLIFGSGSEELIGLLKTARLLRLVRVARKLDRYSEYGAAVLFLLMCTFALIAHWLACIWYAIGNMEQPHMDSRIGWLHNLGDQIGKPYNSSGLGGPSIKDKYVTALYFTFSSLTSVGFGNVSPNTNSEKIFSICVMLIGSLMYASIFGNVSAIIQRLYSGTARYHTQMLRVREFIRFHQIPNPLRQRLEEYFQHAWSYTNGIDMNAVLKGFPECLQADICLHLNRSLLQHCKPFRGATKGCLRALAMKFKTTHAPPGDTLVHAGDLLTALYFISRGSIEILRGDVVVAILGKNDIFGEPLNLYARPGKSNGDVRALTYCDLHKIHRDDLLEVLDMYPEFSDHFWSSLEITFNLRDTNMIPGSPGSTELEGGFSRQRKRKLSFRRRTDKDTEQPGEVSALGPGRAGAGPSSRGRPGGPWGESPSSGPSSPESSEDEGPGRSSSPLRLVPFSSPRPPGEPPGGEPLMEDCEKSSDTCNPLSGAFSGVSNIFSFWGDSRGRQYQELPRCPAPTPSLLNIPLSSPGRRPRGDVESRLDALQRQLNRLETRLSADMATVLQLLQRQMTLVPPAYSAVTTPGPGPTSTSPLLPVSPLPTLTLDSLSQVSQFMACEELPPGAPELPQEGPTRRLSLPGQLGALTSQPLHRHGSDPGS
row,SMILES,"hERG current change (%, negative = inhibition) at 10uM [%]"
1,Cc1ccccc1-c1nc(CS(=O)CC(=O)NC2CCCC2)c(C)o1 (stereo not drawn),8.89
2,O=C(COC(=O)CSc1nnc(-c2ccc(Cl)cc2)o1)NCc1ccc2c(c1)OCO2,-0.394
3,COc1ccc(SC[C@H](C)CN2CC[C@H](C)CCC2=O)cc1,-6.88
4,CCCC(=O)NC(=S)Nc1ccccc1C(=O)OC,16.6
5,O=C1c2ccccc2C(O)(c2ncc[nH]2)N1C1CCCCC1 (stereo not drawn),18
6,COc1ccc(-c2[nH]ncc2/C=N/NC(=O)c2cccc([N+](=O)[O-])c2)cc1OC,-62.1
7,CN(C)/C=C(/C(=O)c1ccc(Cl)cc1)S(=O)(=O)c1ccc(Cl)cc1,-33.5
8,CN1C(=O)CC(N2CCC(c3nc4ccccc4s3)CC2)C1=O (stereo not drawn),-16
9,CCCCCC(=O)Nc1cccc(C2=NOC3(C2)C[C@H](C(N)=O)N(C(=O)CCCCC)C3)c1 (stereo partly drawn),-70.7
10,O=C(/C=C\c1cn(-c2ccccc2)nc1-c1cccs1)N1CCOCC1,-28.9
11,Cc1cc([N+](=O)[O-])nn1Cc1ccc(C(=O)N/N=C/c2ccc(O)cc2O)cc1,5.1
12,NS(=O)(=O)c1ccc(NC(=O)COC(=O)c2cc3ccccc3cc2O)cc1,13.8
13,CC1CCCCN1C(=O)Cn1cnc2cc([N+](=O)[O-])ccc2c1=O (stereo not drawn),-15.1
14,O=C(O)CC(C(=O)NCc1ccccc1)C1CCCO1 (stereo not drawn),-4.34
15,CC(=O)N1CCN(c2ccc(NC(=O)c3ccccc3)cc2)CC1,-5.46
16,COc1ccc(CCNCC(O)COc2cccc(Br)c2)cc1OC (stereo not drawn),-67.3
17,Fc1ccccc1/C=N/n1c(COc2ccccc2)n[nH]c1=S,5.3
18,COCc1nnc(NC(=O)c2cc(Cl)ccc2OC)s1,-5.28
19,CCN(CC)CCn1c(-c2ccc(C)cc2)nc(=S)c2c1CC(C)(C)OC2,-0.55
20,Cc1cc(C(=O)NC2CCC(C)CC2)c(C)o1 (stereo not drawn),12.5
21,Cc1ccc(CC2C(=O)N(c3ccc(F)cc3)C(=O)C2C)cc1 (stereo not drawn),8.26
22,O=C(NCCc1ccccc1)C(=O)Nc1ccc2c(c1)OCCO2,30.2
23,O=C(C1CCCCC1)N1CCN(C(=O)C2CCCCC2)CC1,-10.4

row,SMILES,"hERG current change (%, negative = inhibition) at 10uM [%]"
1,CC(=O)n1cc(N(C(=O)CCl)c2ccc(Cl)cc2)c2ccccc21,-2.4
2,CCc1ccc(N2CC(C(=O)N3CCCCCC3)CC2=O)cc1 (stereo not drawn),-10.7
3,O=C1CCCc2c1cc(C(=O)Nc1ccc(Cl)cn1)c(=O)n2-c1ccccc1,-60.1
4,COc1ccc(OC)c(C2=NOC(C(=O)Nc3cc(C)nn3-c3ccccc3)C2)c1 (stereo not drawn),-21.5
5,CCOC(=O)CCCNC(=O)COC(=O)[C@@H]1CCCN1S(=O)(=O)c1ccc(Cl)cc1,-20.9
6,CC(=O)N1CCN(c2ccccc2NC(=S)NC(=O)c2cc3ccccc3o2)CC1,19.3
7,CC(C)c1ccc(NS(=O)(=O)c2ccc(-n3cccn3)cc2)cc1,12.4
8,COc1ccc(Cc2c(O)nc(SCC(C)C)[nH]c2=O)cc1,5.08
9,CCS(=O)(=O)N1Cc2ccccc2CC1C(=O)NCCc1c[nH]c2ccccc12 (stereo not drawn),-0.595
10,CCc1cc(=O)oc2c3c(cc(OCC(=O)NCCCCCC(=O)O)c12)OC(C)(C)CC3,15.6
11,Cc1cccc(NC(=O)c2cc(NC(=O)c3ccco3)ccc2Cl)n1,-29.1
12,CCc1ccccc1-n1c(SCC(=O)NC)nnc1-c1ccco1,-0.236
13,Fc1ccc(NC(=S)NCCc2ccccc2)c(F)c1F,-1.12
14,CCn1c(C)nc2cc(S(=O)(=O)C(F)(F)F)ccc21,-4.49
15,O=C(NC1CCCCC1)C(c1ccc(F)cc1)N(C(=O)Cc1ccsc1)c1ccc(F)cc1 (stereo not drawn),-5.35
16,Cc1cc(C(F)F)n2ncc(C(=O)NCc3ccc(F)cc3)c2n1,-17.7
17,COc1cccc(C2=NNC(=NCc3ccccc3)SC2)c1,-42.6
18,CCC(=O)NCCCCNC(=O)CC,21.4
19,CN(CCC#N)C(=O)COC(=O)c1nn(-c2ccccc2)c(=O)c2ccccc12,3.1
20,c1coc(CSSCc2ccco2)c1,15.8
21,Fc1ccc(COc2ccccc2C(=S)N2CCCC2)cc1,3.38
22,COc1cc2ccccc2cc1C(=O)N1CCN(C(C)=O)CC1,16.8
23,CCC(=O)N(Cc1ccco1)Cc1cc2cccc(C)c2n2nnnc12,23

row,SMILES,"hERG current change (%, negative = inhibition) at 10uM [%]"
1,COc1ccccc1Cn1c(=S)[nH]c2cc(C(=O)N3CCN(C)CC3)ccc2c1=O,-14.4
2,COc1ccccc1C(=O)NC(CCSC)C(=O)OC(C)C(=O)NC1CC1 (stereo not drawn),14.6
3,COc1ccccc1-n1cc2ccc([N+](=O)[O-])cc2n1,8.8
4,CCSc1ccc(C(=O)Nc2ccc(Br)cn2)cc1[N+](=O)[O-],-1.01
5,Cc1ccc(OCC(=O)N/N=C\c2ccc(C)o2)c(C)c1,15.5
6,COc1ccc(N2C(=O)CC(Sc3n[nH]c(-c4cccc(C)c4)n3)C2=O)cc1 (stereo not drawn),-6.65
7,COc1ccc(CNc2ccc3c(c2)nc(C)n3C)cc1OC,-17.1
8,CN(CC(=O)Nc1ccc(F)c(F)c1F)C(=O)C1CSC2(C)CCC(=O)N12 (stereo not drawn),-5.92
9,CC(=O)Oc1cccc(C(=O)Nc2ccccc2C(=O)N2CCCC2)c1,28.4
10,CCS(=O)(=O)N1CCN(c2c(Cl)cccc2[N+](=O)[O-])CC1,-15.3
11,COc1ccc(NC(=O)COc2ccccc2C)cc1S(=O)(=O)N1CCCCC1,-0.099
12,Cc1nc2cc(C(=O)N3CCC4(CC3)OCCO4)ccc2n1-c1cccc(F)c1,-7.21
13,CCCC(=O)Nc1cc(C)c(NC(=O)c2ccncc2)cn1,-16.5
14,CN(C)c1ccc(C(CNC(=O)COc2ccc(Cl)cc2)N2CCCC2)cc1 (stereo not drawn),-46.4
15,CCOC(=O)C(=O)Nc1cc([N+](=O)[O-])ccc1C,3.65
16,Cc1ccc(NC(=O)N2CCCCCC2)c(C)c1,9.88
17,CN(C)S(=O)(=O)c1ccc(C(=O)NNc2nc(-c3ccccc3)c3cc(Br)ccc3n2)cc1,9.74
18,CCOc1ccc(CNC(=O)c2ccccc2NC(=O)C2=CSCCO2)cc1,-21.5
19,Cc1ccc(OCCOC(=O)c2nc3nccc(C)n3n2)cc1,-18.4
20,C/C(=N\NC(=O)c1cc(C)nc2ccccc12)c1ccncc1,9.57
21,COc1cc(CN/C(C)=C(\C#N)C(N)=O)cc(OC)c1OC,19.9
22,COC(=O)c1c(NC(=O)C2CC2)sc2c1CCCC2,8.92
23,COc1cccc(NC(=O)CN2CCCCCC2)c1.Cl,11.6

row,SMILES,"hERG current change (%, negative = inhibition) at 10uM [%]"
1,O=C(c1ccncc1)N(c1ccc2oc3c(c2c1)CCCC3)S(=O)(=O)c1ccc(F)cc1,13.6
2,O=C1CN(c2ccc(F)cc2)C(=S)N1c1ccccc1,17.6
3,O=C(Nc1ccccc1)Nc1ccc2c(c1)CCC2,29.8
4,CCO[C@@H]1OC(C(=O)NCc2nc3ccccc3[nH]2)=C[C@H](C2CC2)[C@H]1CCCO,-17.6
5,COC(=O)c1ccc(C2/C(=C(\O)c3ccc4c(c3)OCCO4)C(=O)C(=O)N2CCCN(C)C)cc1 (stereo not drawn),-55.9
6,CCCCCC(=O)N/N=C/c1cccs1,14.1
7,CCSc1n[nH]c(=S)s1,29.4
8,Cc1ccccc1C(=O)NC(CC(C)C)C(=O)Nc1ccc(F)c([N+](=O)[O-])c1 (stereo not drawn),5.46
9,COc1ccc(/C=N/NC(=O)/C(=C/c2ccccc2)CCO)cc1,7.76
10,CCOC(=O)C1SC2(C(F)F)CC1(O)c1c(c(OC)c3occc3c1OC)O2 (stereo not drawn),-9
11,Cc1ccc(NC(=O)C(=O)NCc2ccco2)c(C)c1,20
12,Cc1nc2ccccc2n1S(=O)(=O)N(C)C,21.7
13,CCn1c(/C(C#N)=C(\O)CCc2ccccc2)nc2ccccc21,8.24
14,Cn1cc(/C=C/c2cc[n+](C)cc2)c2cc(Cl)ccc21.[I-],-47.9
15,O=C(OCC(=O)N1CCN(C(=O)c2ccco2)CC1)c1ccccc1C(=O)c1ccc(Cl)cc1,-64.8
16,Fc1ccc(-c2nnn(Cc3ccccc3Cl)n2)cc1,-4.1
17,Cc1csc(NC(=O)c2cccs2)n1,-1.76
18,CCOc1ccccc1/C=N\Nc1cnn(Cc2ccccc2)c(=O)c1Cl,11
19,Cn1cc(P(=S)(N2CCOCC2)N2CCOCC2)cc1P(=O)(N1CCOCC1)N1CCOCC1,7.36
20,CNC(=O)c1c(NC(=O)c2ccc(S(=O)(=O)N3CC(C)OC(C)C3)cc2)sc2c1CCN(C(C)C)C2 (stereo not drawn),-26.9
21,CCCCC1(C)OC(=O)C(=Cc2ccc(N(C)C)cc2)C(=O)O1 (stereo not drawn),6.34
